Test results reported in the supplement of paper PMC3334620.
The full ranking holds about 33,000 sequences; the median of “E-score (-0.5 to 0.5)” is about -0.013, and the highest 2% start at about 0.3. The list shows a part of the results.

molecular target: T1, Msn1 (UniProt P22148); test: PBM E-score (8-mer binding enrichment) (E-score (-0.5 to 0.5)); higher = stronger / more preferred TF binding; most listed sequences are background and not binding sites; conditions: protein concentration: 200 nM; construct: GST-full length
T1 sequence: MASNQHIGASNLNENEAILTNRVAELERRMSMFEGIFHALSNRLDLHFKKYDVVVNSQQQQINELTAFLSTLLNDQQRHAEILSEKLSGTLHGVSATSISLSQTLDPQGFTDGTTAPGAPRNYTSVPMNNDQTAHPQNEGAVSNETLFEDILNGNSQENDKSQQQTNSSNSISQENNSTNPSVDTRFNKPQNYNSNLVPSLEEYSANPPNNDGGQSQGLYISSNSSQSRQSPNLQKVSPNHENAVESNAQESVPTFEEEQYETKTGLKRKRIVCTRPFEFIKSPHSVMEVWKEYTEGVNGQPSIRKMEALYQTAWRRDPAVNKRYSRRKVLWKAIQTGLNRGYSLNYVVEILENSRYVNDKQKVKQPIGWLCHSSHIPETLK
Summary of the method: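 E-scores (a modified Wilcoxon-Mann-Whitney statistic) were assigned by the Universal PBM Analysis Suite to every ungapped eight-base word pooled with its reverse complement. The input came from universal all-10-mer Agilent arrays made double-stranded by primer extension and probed with GST-tagged yeast transcription factors at about 100-200 nM. Fluorescent anti-GST detected bound protein, and masliner normalised the scans.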

Row | Sequence | PBM E-score
1 | TACTACAA | 0.268
2 | AAGTGTTA | -0.025
3 | ATGGGCCA | -0.153
4 | ACACGAGA | 0.117
5 | CAGTCCAA | -0.176
6 | AAATGGTT | 0.158
7 | AATATAAC | 0.122
8 | CGCCCGAC | 0.0493
9 | GTAGGATA | -0.0803
10 | ACGAGAAG | -0.15
11 | CTAGTACC | -0.0261
12 | ATGAAGTC | -0.0197
13 | TAAGCATA | 0.021
14 | AATCCACG | 0.0424
15 | TGTTCTAA | 0.259
16 | AACGGGAC | 0.182
17 | CACCCCGA | -0.105
18 | ATCCTCGC | -0.292
19 | CGCGCGCA | 0.131
20 | GCACGTCC | 0.181
21 | ACCCGGGC | -0.0373
22 | ATAAGCAG | -0.0568
23 | CCTAGAGG | -0.0777
24 | AAGTTACT | 0.0189
25 | GTTGACCA | -0.122

Row | Sequence | PBM E-score
26 | CGTACGGA | 0.138
27 | ACTATACC | 0.0929
28 | TCAATACA | 0.117
29 | GTGTGCTA | -0.135
30 | ATAACACC | 0.152
31 | AATGAAAG | -0.0355
32 | AAGAGTCA | 0.128
33 | AGCGAGTG | -0.0483
34 | AGCCGAGC | -0.00764
35 | CATGCGTC | 0.0631
36 | ATATCTCG | 0.0554
37 | CGGTATGA | 0.105
38 | GAGCGTCA | -0.094
39 | GAGCGAAC | -0.14
40 | GGTGTCTA | 0.0447
41 | AGGGTAGC | -0.267
42 | GGGTGAAA | 0.107
43 | AGATTAAG | 0.0729
44 | AGTCGACG | 0.176
45 | AGAGCACC | -0.348
46 | ATTAACTC | 0.234
47 | GCCGTGAA | 0.0234
48 | TGGCGCAA | -0.198
49 | ATCAATCA | 0.0687
50 | CGGCTGAA | -0.0794

Row | Sequence | PBM E-score
51 | CACATTGG | -0.0202
52 | GCAAGACC | -0.124
53 | CCTTCGGC | -0.157
54 | TAGGTTGA | 0.0241
55 | ATCTGGAG | -0.145
56 | CCGTGTGC | -0.119
57 | GGACAGCC | 0.0355
58 | GGCCGACA | -0.0491
59 | CGCAGCCC | -0.0555
60 | GCGCTAGC | -0.0831
61 | AACCCTCA | -0.0231
62 | CGGCTTCC | -0.237
63 | AGCGGCCG | 0.0864
64 | AGGCTGCA | -0.00397
65 | ACTGAACT | 0.0175
66 | GACCTATA | 0.226
67 | GGGAGAAA | -0.0931
68 | GTGTATTA | 0.227
69 | CAGGTTGC | 0.0156
70 | CCGGCTAG | -0.141
71 | GGCCACCC | -0.264
72 | AGTGCACT | 0.0224
73 | AAACCGGC | 0.134
74 | CCTATCAC | -0.127
75 | GCTTGCAC | -0.0955

Row | Sequence | PBM E-score
76 | AGGAATAT | 0.16
77 | ATTAGGCA | -0.145
78 | CGAGACGA | -0.0129
79 | GGCGCCCC | -0.185
80 | AGCGCATC | -0.114
81 | TGCTGAAA | -0.141
82 | ATGCCATG | 0.0799
83 | CATCGCGG | 0.17
84 | CTGTCTCC | -0.047
85 | ACGCTCCT | -0.113
86 | TACAGGTA | -0.12
87 | AAATCACT | -0.004
88 | GAACATCC | 0.162
89 | CCCATACC | -0.237
90 | AACTAGAT | -0.00608
91 | GACGGCGC | -0.127
92 | AGCGCAAA | 0.0365
93 | GGAAAAAC | 0.124
94 | GTGCTAGA | 0.056
95 | GCAGTGAC | -0.0976
96 | GGCATTCA | -0.178
97 | ACGAAGCC | 0.0406
98 | GACCACGA | -0.0658
99 | ATGACGTG | -0.0956
100 | CACGCGTA | 0.0651

Row | Sequence | PBM E-score
101 | AATGCTGC | -0.15
102 | CTGTACCA | -0.0839
103 | ACACTAAG | -0.0306
104 | TCTATGCA | 0.0382
105 | AAGTGTGA | -0.0471
106 | GCCACGCA | -0.207
107 | ATCTGGAA | -0.0683
108 | CAAGGGGG | -0.253
109 | CCGTACAC | 0.0554
110 | ATAGTAAT | 0.0913
111 | AGACCAGG | -0.179
112 | AGTTACAA | -0.0109
113 | CGTCCTAC | 0.157
114 | TCCTTACA | 0.0543
115 | CATGTCGA | 0.139
116 | TAATTTGA | -0.0805
117 | TACTTATA | 0.127
118 | AAAGATCT | -0.0783
119 | AAACCTTT | -0.147
120 | ATCTCGCC | -0.165
121 | TCCGGCCA | 0.00555
122 | ATACGTTG | -0.174
123 | CGCATCAC | -0.1
124 | TATAGCCA | 0.0211
125 | CGGCGGCA | -0.105

Row | Sequence | PBM E-score
126 | CGGCAGTC | -0.0355
127 | CCAGTTCC | -0.19
128 | AAGCTAGT | 0.00994
129 | AACCAATT | 0.0568
130 | CTTTGAAA | -0.00217
131 | TCAGTCCA | -0.0538
132 | GCTGTCCA | 0.159
133 | ATCAATAA | 0.0916
134 | AAGTCGAA | 0.0653
135 | CGCTGCGC | -0.118
136 | AACCGCTA | -0.0103
137 | CGTCAAAC | 0.0107
138 | AACAACGA | 0.139
139 | CAGGGCGG | -0.18
140 | AATGACAA | 0.29
141 | AGGTCACA | -0.146
142 | GCGGTCAC | -0.172
143 | TAGGCGAA | -0.0403
144 | AGGACCTA | 0.0657
145 | ACGAGACC | -0.0967
146 | CGCAGGCG | -0.134
147 | AGCGATAG | -0.16
148 | CCATGTTA | 0.119
149 | CCTCGTAA | 0.0848
150 | AGCGTCGG | 0.0359

Row | Sequence | PBM E-score
151 | TAATACCA | 0.174
152 | ACAGAGAG | -0.195
153 | AACTTCTA | -0.0235
154 | CCAGTTTA | -0.0582
155 | ATAGCAAC | -0.0933
156 | AAGAGGGA | -0.207
157 | CGACGCAA | 0.0192
158 | TCGCCGCA | -0.166
159 | AGAGACGG | -0.111
160 | AGGTGTGA | -0.175
161 | AGTCTGTC | 0.0754
162 | ACTAGTGG | 0.131
163 | CCGCGCGG | 0.232
164 | CGGGTCCA | -0.0128
165 | AGGGTGCG | -0.228
166 | ACAATACA | 0.0447
167 | CGATACAA | 0.149
168 | AGAGAGCA | -0.26
169 | ACCAATAC | 0.0858
170 | TTAACAAA | 0.204
171 | GCGTCGCA | -0.182
172 | CACAAATA | 0.185
173 | TCCCGCGA | -0.0223
174 | CGCCGTAG | 0.0177
175 | GGCGAACC | -0.109

Row | Sequence | PBM E-score
176 | CAAAACTC | 0.166
177 | ACTTATGC | 0.0829
178 | GAGATATC | 0.0403
179 | CGAATTAC | -0.0698
180 | GCCCGCTA | -0.211
181 | TGATGACA | 0.299
182 | CCCCATTC | -0.12
183 | CGAGTTCC | 0.0314
184 | TAATCATA | 0.168
185 | GAAACTGC | -0.196
186 | GGAGGTAC | -0.169
187 | ATGCCACA | 0.0572
188 | AGGAGCGG | -0.424
189 | AAGGCCAC | -0.252
190 | GCCGGGAC | 0.119
191 | GACGCCGA | 0.0972
192 | CCACCAGC | -0.136
193 | AGTACCTA | 0.04
194 | TATGAATA | 0.114
195 | GTAAACAC | 0.0263
196 | AGTTAACA | 0.0679
197 | CACTTTCA | 0.0218
198 | GACCGTCA | 0.0609
199 | GCATGACC | -0.202
200 | AACAGCAT | -0.0683

Row | Sequence | PBM E-score
201 | ATAGGGCA | -0.101
202 | CCATACCG | -0.101
203 | TCGGAAAA | 0.245
204 | AATGACCA | 0.181
205 | AGTTCGAC | -0.0162
206 | CGTGCACA | -0.0375
207 | ATGCATTC | 0.0542
208 | GCTCCGCA | -0.0375
209 | GCAACTTA | 0.0391
210 | CCCTCGAA | -0.0781
211 | CATAGCCG | 0.128
212 | GTGCTAAA | 0.00368
213 | ACCACTAC | -0.179
214 | CCCAGGAG | -0.422
215 | CCAGGGCA | -0.197
216 | AGTACTTA | 0.0636
217 | ATAAGGTC | 0.0376
218 | ACGGGATA | 0.0493
219 | AGCCAACG | -0.102
